# Data as given in the supplement of paper PMC10126150.
# Sequences with one replicate were seen in a single cluster, so their values are uncertain.
# Test system: ATP
# Test: switch fluorescence ratio, 500 uM ATP over buffer (Cy3 cluster intensity, sum of 5 cycles each) (fold (ratio)); higher = stronger signal-on switching upon ATP binding; sequences stand for … in TCGTCGGCAGCGTCAGATGTGTATAAGAGACAGTTTTTTTTTTTTTTTTTTTTTTTTT…TC
# Conditions: aptamer strand: ATP DNA aptamer (quencher-CACCTGGGGGAGTATTGCGGAGGAAGG + anchor), 100 nM annealed; ATP concentration: 500 uM; one replicate
# Summary of the method: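 The fluorescence ratio divides summed target-cycle Cy3 intensity by summed buffer-cycle Cy3 intensity for each cluster and is averaged per switch-domain sequence. Cy3-labelled switching-strand clusters on a modified Illumina MiSeq flow-cell were annealed to 100 nM quencher-labelled ATP aptamer, then imaged in selection buffer and again after 15 min with 500 uM ATP at 22 °C. Five such cycles were run, with NaOH stripping and re-annealing between them, and clusters outside 100-1000 RFU were excluded.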
# 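Also: ATP exposure 15 min at 22 °C before imaging.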
row,Sequence,switch fluorescence ratio
1,TATTGGAGCC,1.08
2,CCCGGTGCCC,1.47
3,TCGTTCGCC,1.14
4,GAGTGATTT,1.01
5,ATGGTTCCCA,0.97
6,TTCCTAACTG,0.932
7,TGCAGGGGG,1.01
8,GATCACTTC,1.02
9,TATTCCGTAC,2.01
10,GAGGGCCACC,1.1
11,TGTGACATG,0.889
12,CCACCAGATT,1.25
13,AAGCGTGCAG,1.03
14,TATACAAGCG,1.01
15,TTTCTGGGCA,0.974
16,ATCGCTGCCC,1.08
17,TTCGGGAT,1.87
18,GTGAATCTAA,0.984
19,TTCTTTTTGT,1.06
20,AGCGGTCGTA,1.08
21,AATAAAAACA,1.03
22,ACCCGTCCGG,1.02
23,GCAACATCTG,1.04
24,TAGGGTGGTG,0.952
25,TTGACTCCAT,1.01
26,GTGATTTTAG,0.964

row,Sequence,switch fluorescence ratio
1,ACGCAGTTTT,1
2,AAACTGATGG,1.02
3,TGAGCGCCGA,1.05
4,CTCCTGTATA,1.24
5,GAGAATATGG,1.03
6,CTGATAGCGG,1.19
7,TTTGTCAGTC,0.967
8,TTGCGCTATG,1.01
9,CAATCGCTCC,1.37
10,GTGCTGATGG,0.997
11,CCCCAATTCG,1.17
12,ATCGTAATCG,0.981
13,CACATAATAG,1.02
14,CTTAAGGTTT,1.01
15,TTCACGCCAG,1.03
16,TCGTTCCC,1.04
17,TCCAACTCCC,1.61
18,TTACGTTCAA,1.12
19,AAGCTTATCG,1.04
20,GGGTCTGACA,0.988
21,CTGGGTCCGT,1.11
22,TCCTGCGGGT,1.02
23,TGGGTATCAG,1
24,CAATACGCCG,1.03
25,GTTGTCCGCC,1.02
26,CAAAGTGGCG,1.02

row,Sequence,switch fluorescence ratio
1,AGCTGCAAGG,1
2,CGGTGGGGTC,1.06
3,TTTCGATGGA,0.982
4,CGTCGGCTAG,1.04
5,CAGATCCTTG,1.01
6,GAGTGATGAG,1.03
7,ACACTTTTTA,1.04
8,AATAACACGG,1.04
9,AGTCAGCGAG,1.05
10,TGATCTAGGG,1.02
11,TTTACTGCAA,1.07
12,ATGCCGGAAT,1
13,TATTCAGTAC,1.09
14,CCGGTAGTAG,1.23
15,GACCTTGATA,1.02
16,ATTTCGGCA,1.02
17,GTACCAGACT,1.02
18,GGGGGCGAAC,1.01
19,AGGGAGGCCA,1.01
20,TGCTAAGATT,1.01
21,ACGGGGACTT,1.07
22,GACTGACACA,1.29
23,CGCTCCGGAT,1.21
24,GCCATGCCGG,1.02
25,TGGGAAGTAA,0.983
26,TTTAGCCCG,1.05

row,Sequence,switch fluorescence ratio
1,TACCCGCGGT,1.12
2,AGTACTACGA,1.05
3,TCAGGTTGGT,1.15
4,TAGATACTTA,1.04
5,ATATAGGGC,1.02
6,TCAGTAATC,1.24
7,TTACGATGGC,1.29
8,AACTTGAGTT,0.995
9,GGGCGTAGTG,0.99
10,TGAGTATGAG,1.06
11,AAGTAGGGAA,0.962
12,GAGAATTGTT,0.99
13,TATTTGTAGC,1.04
14,GCGTGGGAGC,1.07
15,TATCCCGCAT,4.96
16,ACTAGGCCGG,1.01
17,ACTGTGTGAC,1.06
18,GGATTGCCTG,0.94
19,TTTCTGGGT,1.02
20,AAGATGTAGA,1.06
21,ATGTAACGG,0.979
22,TTAAGAGCGC,1.08
23,GTGGCCATGA,0.953
24,CTTCAGTGAC,1.06
25,TGTGGCGGA,1.01
26,AGTGAGTAG,0.987

row,Sequence,switch fluorescence ratio
1,TACCGATTAC,1.6
2,ACGAGGGGG,0.999
3,GTCCTTCCTG,1.73
4,AGGAGTGACC,1.04
5,TCAGTTACTG,1.02
6,ATTGGCTCCG,1.1
7,GGGGTTGCCC,0.991
8,CCATGGGTC,0.964
9,TGAGTCCATC,0.986
10,CAAACTTAGT,1.02
11,TTGCACATTA,1.04
12,GGTCATGGAG,1
13,CACTGTACC,1.63
14,ATTATCCTGT,0.999
15,CCGATGTCAG,1.26
16,TCTCCTAAG,1.04
17,TATCATAGGC,1.05
18,GCTAGTCATA,0.96
19,TTATAATCTT,0.995
20,GGGAGTGGAG,1.01
21,GCAGGAGTCG,0.978
22,ATGGACGTGC,0.984
23,GCGGCGTGAA,1.01
24,TTGCGCGAGG,1.02
25,CCTTTAATTT,1.07
26,CTTCTGTCCA,1.03

row,Sequence,switch fluorescence ratio
1,GATCGCATG,1.2
2,GGTCGGGATG,0.971
3,TTTCAGCTAC,2.61
4,TTACGGTACA,1.51
5,AGTACAGAGG,0.987
6,GTCAAATTTT,1.02
7,CTTCATCCAG,1.94
8,CTCTGGGGTG,1.06
9,TTAATACGGG,1.04
10,TGACACCG,1.02
11,ATCCTCTGG,1.02
12,GAGATTATTC,1.03
13,AGGAAGCATA,1.05
14,TTCCATCTGT,1.01
15,CTTACCAC,1.08
16,TGAGAGTTCG,0.981
17,GCTGTCTCC,1.03
18,ACCTAATTTT,1.02
19,GGTCTCTCGA,0.991
20,ATGATACGGG,1.04
21,GGGAGTAATT,0.957
22,TGAGGATCTT,1
23,GTTTATATT,1.03
24,TCACGATGTT,0.963
